Data on 27 compounds can be found in the antibiotic and cytotoxicity screens of Wong et al. (2023).

Each structure is given as a SMILES string. The list shows a part of the results.

One assay relates to HSkMC. Nature of the assay: cytotoxicity call (relative viability < 0.9). To be noted: 10 µM.
Another assay deals with HepG2. Nature of the assay: cytotoxicity call (relative viability < 0.9). To be noted: 10 µM.
For the next assay, the system named is S. aureus RN4220. Nature of the assay: growth inhibition call (relative growth <= 0.2). To be noted: 50 µM.

Take `O=C(NCc1nc2ccccc2[nH]1)C1=C[C@H](c2csc3ccccc23)C[C@H](OCc2ccc(CO)cc2)O1`: the cytotoxicity call in the assay with HSkMC and with HepG2 was “inactive” throughout. Besides, the growth inhibition call with S. aureus RN4220 is “inactive”.
In the case of `C[C@@H]1CN([C@H](C)CO)C(=O)Cc2cc(NC(=O)Nc3ccccc3)ccc2O[C@@H]1CN(C)Cc1ccc(Cl)c(Cl)c1`, the cytotoxicity call in the assay on HSkMC and with HepG2 was “active” throughout. Further, the growth inhibition call in the assay on S. aureus RN4220 is “inactive”.
Take `COc1ccc(S(=O)(=O)N(C)C[C@@H]2Oc3ccc(N(C)C)cc3CC(=O)N([C@H](C)CO)C[C@H]2C)cc1`: the cytotoxicity call in the assay on HSkMC and in the assay on HepG2 was “inactive” throughout. The growth inhibition call in the assay with S. aureus RN4220 is “inactive”.
With `Cc1ccc2sc(C)nc2c1`, the cytotoxicity call in the assay with HSkMC and in the assay on HepG2 was “inactive” each time. In the assay on S. aureus RN4220, the growth inhibition call is “inactive”.
For `Cc1cc(=O)c(C(=O)N[C@@H](C(=O)N[C@@H]2C(=O)N3C(C(=O)O)=C(CSc4nnnn4C)CS[C@H]23)c2ccc(O)cc2)c[nH]1`, the cytotoxicity call in the assay on HSkMC and in the assay on HepG2 was “inactive” each time. In the assay on S. aureus RN4220, the growth inhibition call is “active”.
As to `COCCOC(=O)N1C(=O)[C@@]2(c3cc(C#CCNC(N)=O)ccc31)[C@H](C(=O)N1CCc3cc(OC)c(OC)cc3C1)[C@H]1C(=O)O[C@H](c3ccccc3)[C@H](c3ccccc3)N1[C@@H]2c1ccc(OCCO)cc1`, the cytotoxicity call in the assay with HSkMC and with HepG2 was “inactive” each time. For the same compound, in the assay on S. aureus RN4220, the growth inhibition call was “inactive”.
Take `CC(C)NC(=O)Nc1ccc2c(c1)C(=O)N([C@H](C)CO[Si](C)(C)C(C)(C)C)C[C@@H](C)[C@H](CN(C)S(=O)(=O)c1ccc(Cl)cc1)O2`: the cytotoxicity call in the assay on HSkMC and with HepG2 was “inactive” each time. Also, the growth inhibition call in the assay with S. aureus RN4220 was “inactive”.
As to `CS(=O)(=O)NC[C@@]12COC[C@H]1CN(C(=O)COC1CCCC1)C2`, the cytotoxicity call with HSkMC and with HepG2 was “inactive” throughout. Moreover, the growth inhibition call in the assay with S. aureus RN4220 was “inactive”.
As to `CCN(CC)CCOCCOC(=O)C(CC)(CC)c1ccccc1.O=C(O)CC(O)(CC(=O)O)C(=O)O`, the cytotoxicity call with HSkMC and in the assay on HepG2 was “inactive” each time. Moreover, in the assay with S. aureus RN4220, the growth inhibition call was “inactive”.
With `O=C(C[C@H]1C=C[C@H](NS(=O)(=O)c2ccccc2F)[C@H](CO)O1)NCCCN1CCOCC1`, the cytotoxicity call in the assay with HSkMC and in the assay with HepG2 was “inactive” in each case. In addition, the growth inhibition call in the assay on S. aureus RN4220 was “inactive”.
With `C[C@@H]1CN([C@H](C)CO)C(=O)Cc2cc(NC(=O)C3CC3)ccc2O[C@H]1CN(C)C(=O)Nc1ccc(F)cc1`, the cytotoxicity call in the assay on HSkMC and in the assay with HepG2 was “inactive” in each case. In addition, in the assay with S. aureus RN4220, the growth inhibition call was “inactive”.
For the compound `Cc1noc(C)c1S(=O)(=O)Nc1cccc2c1O[C@H](CN(C)C(=O)Nc1ccccc1)[C@H](C)CN([C@@H](C)CO)C2=O`, the cytotoxicity call with HSkMC and with HepG2 was “inactive” throughout. Besides, in the assay on S. aureus RN4220, the growth inhibition call was “inactive”.
Turning to `C[C@H](CO)N1C[C@H](C)[C@@H](CN(C)S(=O)(=O)c2cn(C)cn2)Oc2c(NC(=O)C3CCOCC3)cccc2C1=O`, the cytotoxicity call in the assay with HSkMC and with HepG2 was “inactive” throughout. In addition, the growth inhibition call in the assay with S. aureus RN4220 was “inactive”.
For the compound `C[C@@H]1CCCCO[C@H](CN(C)C(=O)NC2CCCCC2)[C@H](C)CN([C@@H](C)CO)C(=O)c2cc(NS(=O)(=O)c3ccccc3)ccc2O1`, the cytotoxicity call with HSkMC and with HepG2 was “inactive” throughout. Besides, the growth inhibition call in the assay on S. aureus RN4220 is “inactive”.
Turning to `NC(=O)N1C(=O)[C@H]2[C@H](C1=O)[C@H]1C=C(CCCO)[C@@H]2[C@H](c2ccc(CN3CCCC3)cc2)N1Cc1sc2ccccc2c1Cl`, the cytotoxicity call in the assay on HSkMC and with HepG2 was “inactive” in each case. Besides, the growth inhibition call in the assay on S. aureus RN4220 was “inactive”.
Regarding `C[C@H](CO)N1C[C@H](C)[C@@H](CN(C)Cc2ccc(C(=O)Nc3ccccc3N)cc2)OCc2cn(nn2)CCCC1=O`, the cytotoxicity call in the assay on HSkMC and in the assay on HepG2 was “inactive” each time. Also, the growth inhibition call with S. aureus RN4220 was “inactive”.
Turning to `O=C(C[C@H]1CC[C@H]2[C@@H](COC[C@H](O)CN2Cc2cccc(C(F)(F)F)c2)O1)NCCc1ccncc1`, the cytotoxicity call with HSkMC and in the assay on HepG2 was “inactive” in each case. The growth inhibition call in the assay on S. aureus RN4220 is “inactive”.
With `C[C@@H]1CN([C@H](C)CO)C(=O)c2cc(NC(=O)c3ccncc3)ccc2O[C@@H](C)CCCCO[C@@H]1CN(C)CC1CCCCC1`, the cytotoxicity call with HSkMC and in the assay with HepG2 was “inactive” each time. Also, in the assay with S. aureus RN4220, the growth inhibition call was “inactive”.
Consider `C[C@H](CO)N1C[C@H](C)[C@@H](CN(C)Cc2ccccc2)OCCCC[C@H](C)Oc2ccc(NS(=O)(=O)c3ccccc3)cc2C1=O`, for which the cytotoxicity call in the assay with HSkMC and with HepG2 was “inactive” throughout. Besides, the growth inhibition call in the assay on S. aureus RN4220 was “inactive”.
Turning to `COc1ccc(C#Cc2cnc3c(c2)C(=O)N([C@@H](C)CO)C[C@H](C)[C@@H](CN(C)C(=O)CN(C)C)O3)cc1`, the cytotoxicity call in the assay with HSkMC and in the assay with HepG2 was “inactive” in each case. For the same compound, the growth inhibition call in the assay on S. aureus RN4220 is “inactive”.
As to `COc1ccc(S(=O)(=O)N(C)C[C@@H]2Oc3ccc(NS(=O)(=O)c4c(C)noc4C)cc3CC(=O)N([C@@H](C)CO)C[C@@H]2C)cc1`, the cytotoxicity call in the assay with HSkMC and in the assay with HepG2 was “inactive” each time. For the same compound, the growth inhibition call in the assay on S. aureus RN4220 is “inactive”.
Regarding `COc1ccc(NC(=O)N(C)C[C@@H]2OCCCC[C@@H](C)Oc3ccc(NC(=O)C4CCCCC4)cc3C(=O)N([C@H](C)CO)C[C@@H]2C)cc1`, the cytotoxicity call with HSkMC and with HepG2 was “inactive” throughout. Moreover, in the assay on S. aureus RN4220, the growth inhibition call was “inactive”.
In the case of `C[C@H](CO)N1C[C@H](C)[C@@H](CN(C)C(=O)Nc2ccc(C(F)(F)F)cc2)Oc2c(NS(=O)(=O)c3ccc(Cl)cc3)cccc2C1=O`, the cytotoxicity call with HSkMC and with HepG2 was “inactive” each time. Moreover, in the assay on S. aureus RN4220, the growth inhibition call is “inactive”.
As to `C[C@@H]1CCCCO[C@H](CN(C)S(=O)(=O)c2ccc(Cl)cc2)[C@H](C)CN([C@@H](C)CO)C(=O)c2cc(NC(=O)CCC(F)(F)F)ccc2O1`, the cytotoxicity call in the assay with HSkMC and with HepG2 was “inactive” throughout. Moreover, in the assay on S. aureus RN4220, the growth inhibition call is “inactive”.
For `OC[C@H]1O[C@@H](n2cnc3c(NCc4ccco4)ncnc32)[C@H](O)[C@@H]1O`, the cytotoxicity call in the assay on HSkMC is “inactive”. Moreover, in the assay with HepG2, the cytotoxicity call was “active”. The growth inhibition call with S. aureus RN4220 was “inactive”.
Regarding `C[C@@H]1CN([C@@H](C)CO)C(=O)c2cccc(NC(=O)c3ccc(-c4nccs4)cc3)c2O[C@H]1CN(C)Cc1ccc(C(=O)Nc2ccccc2N)cc1`, the cytotoxicity call in the assay with HSkMC and in the assay on HepG2 was “inactive” in each case. For the same compound, the growth inhibition call with S. aureus RN4220 is “inactive”.
Take `CC(C)(C)c1ccc(CSCc2nc3ccccc3[nH]2)cc1`: in the assay on HSkMC (human skeletal muscle cells), the cytotoxicity call is “inactive”. In addition, in the assay with HepG2, the cytotoxicity call is “active”. For the same compound, the growth inhibition call in the assay with S. aureus RN4220 is “inactive”.
